Measured values published in publication PMC9477731 (Nature Immunology, 2022).

Legend:
soluble monomeric CD86 = target: T1, soluble monomeric CD86 (UniProt P42081 24-247); assay: SPR; Biacore T200, Sensor Chip Protein A, CTLA-4–Arg70Gln-Fc immobilised (~2,500 RU), soluble monomeric ligand injected (CD80: eight twofold dilutions from 208.5 µM, 20 μl/min, 60 s); 10 mM Hepes, 150 mM NaCl, 0.05% sodium azide, pH 7.4, 25 °C; 1:1 binding model; settings: both partners purified
T1 construct: soluble monomeric CD86 used as SPR analyte; Construct, tags and host are not described
T1 sequence (looked up): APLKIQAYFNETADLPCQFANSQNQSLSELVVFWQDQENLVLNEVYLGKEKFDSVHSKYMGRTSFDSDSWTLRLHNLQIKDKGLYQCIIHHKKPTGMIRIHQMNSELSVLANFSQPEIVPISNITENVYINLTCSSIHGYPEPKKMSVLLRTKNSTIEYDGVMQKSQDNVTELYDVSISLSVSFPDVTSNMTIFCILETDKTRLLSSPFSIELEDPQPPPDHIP

soluble monomeric CD80 = target: T2, soluble monomeric CD80 (UniProt P33681 35-242); assay: as above; settings: both partners purified
T2 construct: soluble monomeric CD80 used as SPR analyte; Construct, tags and host are not described; also called Soluble CD80
T2 sequence (looked up): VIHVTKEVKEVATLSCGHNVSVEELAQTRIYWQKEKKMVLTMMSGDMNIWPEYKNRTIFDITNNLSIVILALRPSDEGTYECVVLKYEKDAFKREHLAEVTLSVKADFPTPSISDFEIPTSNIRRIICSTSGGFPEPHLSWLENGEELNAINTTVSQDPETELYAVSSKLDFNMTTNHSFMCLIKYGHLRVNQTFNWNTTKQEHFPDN

B1: CTLA-4–Arg70Gln-Fc (Fc fusion)
chain: not shown
notes: soluble CTLA-4 with the patient mutation Arg70Gln; Held on a Protein A sensor chip by its Fc in SPR; detected with anti-Ig or anti-human-Fc on cells; also called Arg70Gln–Ig; R70Q-Ig
For B1, the Kd (soluble monomeric CD86) was roughly 20 µM and the Kd (soluble monomeric CD80) was roughly 5 µM.
